Positions count from the first letter of the chain named. The list shows a part of the results.
T1: UNK ZnF1-3 (human, UniProt Q9C0B0 31-174)
T1 sequence: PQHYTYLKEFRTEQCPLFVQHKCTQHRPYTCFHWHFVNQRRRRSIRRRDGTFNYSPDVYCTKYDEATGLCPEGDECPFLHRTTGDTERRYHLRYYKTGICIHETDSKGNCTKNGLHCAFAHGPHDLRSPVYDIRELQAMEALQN

B1: chr5:128441001:128441002:+_ENSG00000066583_ENST00000173527|hu_hu|motif|central (ssRNA)
RNA: GGGAGUUCUACAGUCCGACGAUCGCACACAUGAGUUUCUACUCCAAAUAAUACAACACUCCUGACUCCGGGAAUCUCUGCGGAUGCCGCUUCUACUUCUGGUAAUACCAUUGAAAACUUGGUCUUUGGAAGUACCAGUUUUACCAACAGAGGAUUGAGCAUCA
B2: chr7:151048522:151048523:+_ENSG00000013374_ENST00000566856|hu_mus|hu_hu_hu_mus_True|68_98 (ssRNA)
RNA: GGGAGUUCUACAGUCCGACGAUCCUGUUUCUUAUUUAUGACAAUUUUGAUGUAAUUUUCUUGAAAUCCAAAGGUUUCAGCUAUUUGACACCUCAGGUCUCUACCAGUGACAUGCAAGCGGGUCUCCAACAAGCUUUUCUUAUCCAACAGAGGAUUGAGCAUCA
B3: 48681835_48685339_445_CDS_ENSG00000162869_ENST00000294952|human|control|control (ssRNA)
RNA: GGGAGUUCUACAGUCCGACGAUCUAUCUUCUUUUGCAGAUCUUCAUCAAAGACACUCUUCUGCUCUUGACUCAACUGAGAAGAAGAUUCUCCACUUUUCUUGUUUUUCUUGCCUCGUGGUUCACUUAGAGCUAGUUCAUCUUGCAACAGAGGAUUGAGCAUCA
B4: 100449551_100449671_332_5pUTR_ENSMUSG00000028532_ENSMUST00000030257|mouse|control|control (ssRNA)
RNA: GGGAGUUCUACAGUCCGACGAUCAAACUUUCCUCGUCUCCUGCGCUCUCGGCUCCACGGCGCGGCGGCUGUAGCUGGAAAACUUAGGGGGCGCCCGGCUGCAGCGCGGGCGCGCGGGCGGCCACCAUCGCCCGGCGGCAGCGGCAACAGAGGAUUGAGCAUCA
B5: chr2:201943701:201943702:+_ENSG00000119013_ENST00000433898|hu_mus|motif|central (ssRNA)
RNA: GGGAGUUCUACAGUCCGACGAUCAUUGCGAGCCCAUGGAUCCCUCAGCCCUCGGGCAGCAAGCUUCUUCUGCACCGUUUCGGAUGGCGUCCCUUCAAUUUUCCACUGUCUGUAAUCUGGAAGUUCCAUUUUACCAUGGCCAUGCAACAGAGGAUUGAGCAUCA
B6: chr17:64801638:64801639:+_ENSG00000154229_ENST00000413366|hu_mus|hu_hu_hu_mus_False|18_18 (ssRNA)
RNA: GGGAGUUCUACAGUCCGACGAUCUAUAUAUAUAUAUACAUAUGUACACAUAUAUAGUAAAACCCUAGUUAAACGUGUAAAGUAGCCAUUCAUUUUUAAAAUUACAUCUACAUUAAAAAAGUAAUCUAUCUGAUAGAGUGCCAGCAACAGAGGAUUGAGCAUCA
B7: 5791108_5791228_6409_CDS_ENSG00000108021_ENST00000328090|human|control|control (ssRNA)
RNA: GGGAGUUCUACAGUCCGACGAUCCGGGUGCCUCCUCAGGCCGUGUGAAGUUCUCAUGGUAUCUUUGAGUUCUUUUGUUAUAGAGAAGUUGGCGUAAGUCCUGAGGAUCCCGUGGAGAUCUCGGAUUUGGACGUAAGGCGGCACCAACAGAGGAUUGAGCAUCA
B8: chr22:19452774:19452775:-_ENSG00000070010_ENST00000399523|hu_hu|hu_hu_hu_mus_False|8_78 (ssRNA)
RNA: GGGAGUUCUACAGUCCGACGAUCCUUCUCAUUGUAGUUGAUAGCAAUCACAUCUCCGGUGGUCAGACAGGCGAAGUUUCUCAAUGCAUUUUCUAAUACCGCUUUAGGGUUGGUAAUAUCCAGGAAGUCAGGGCUCUGAGGCUGCAACAGAGGAUUGAGCAUCA
B9: chr2:20889081:20889082:-_ENSMUSG00000036591_ENSMUST00000173194|mus_hu|FALSE|FALSE (ssRNA)
RNA: GGGAGUUCUACAGUCCGACGAUCUUUCAUUUCAAAUGACAAAGAAGGGACAAAUCCUUUGGAGUCCACAUUGGACGUGGCGGGGAAUGCCACCACACACCCGAAGGGGAAGAAUUCCACAAGCAGGCUCCGAGGAGGGGCAGGCAACAGAGGAUUGAGCAUCA
B10: chr13:100193591:100193592:-_ENSMUSG00000052727_ENSMUST00000064762|mus_hu|motif|central (ssRNA)
RNA: GGGAGUUCUACAGUCCGACGAUCUUUAAACCCUCAUCAUAGUUAGCAGUGCAAAACAUAGACUUAUCAGACAAAAAUCAACGGAAAUGUUAAUUUUGAAAUAAAUAACUAACAUAGAAAAUAAAAUGAGGUCAUUGUUCUCUACAACAGAGGAUUGAGCAUCA
B11: chr12:112501303:112501304:+_ENSMUSG00000021277_ENSMUST00000021706|mus_mus|FALSE|FALSE (ssRNA)
RNA: GGGAGUUCUACAGUCCGACGAUCCCAUCUCUGAGCACGGAUGUUGCUUUCGGAGCGCGCUAGCCGGAUGCAGCAGUAUGACAGGAUGGGAUGCUCGCUGGGGCCUCCUGCCUGCGGCACGGGUCACCUGCCUAUCCCCGGACACAACAGAGGAUUGAGCAUCA
B12: chr5:37680062:37680063:+_ENSMUSG00000029121_ENSMUST00000031004|mus_hu|mus_mus_mus_hu_False|28_58 (ssRNA)
RNA: GGGAGUUCUACAGUCCGACGAUCUUUGGGUGUAGCUGGUACCUCGUACACAGGACCGUCAUACAUGCCCCUGGAAACACUAUGCAAUCCAAAAACCUUAUUCCUGAUCCUGACACGCUGGUACAGGUGCUCCGGGAACGCCUUCAACAGAGGAUUGAGCAUCA
B13: chr19:29101771:29101772:-_ENSMUSG00000024782_ENSMUST00000025696|mus_mus|motif|central (ssRNA)
RNA: GGGAGUUCUACAGUCCGACGAUCAGCAGUAAGGCGCUGUUUAAUGACCUCAAAGGGCACGUUGAGAUUUAUCACUGUGUCGGUCUGAUAAACUUUAUCCAGGGCUUCUGCCUGUGGAAGUGUCCUUGGAAAUCCAUCCAACAGCAACAGAGGAUUGAGCAUCA
B14: chr9:72186818:72186819:+_ENSMUSG00000038535_ENSMUST00000098576|mus_mus|FALSE|FALSE (ssRNA)
RNA: GGGAGUUCUACAGUCCGACGAUCAGUUUUUAUUUCAGAAAGACGUUCAGAAGUUGGGAUACAAACAGAAACUUGCUCUACUAGAACUCGGCAAGAAUGAGUUUCAUGCUGACUUAAGUGUGUAGCCAUAUUAUCUAAGCCAGACAACAGAGGAUUGAGCAUCA
B15: chr12:105540249:105540250:+_ENSG00000136051_ENST00000332180|hu_mus|FALSE|FALSE (ssRNA)
RNA: GGGAGUUCUACAGUCCGACGAUCGUUAUUGAGAUUAUAGAGGUAUCUUGAGACAAAUAUGUGAAUGUUUCUCAUAAUUUCCAGGACAUCGAGUCCCUGCUCCAAAGUCUGGCUAGGAAGAUGUGCCUCUGUCAUAACCAAACCCAACAGAGGAUUGAGCAUCA
B16: chr19:45826695:45826696:-_ENSMUSG00000025220_ENSMUST00000026243|mus_hu|FALSE|FALSE (ssRNA)
RNA: GGGAGUUCUACAGUCCGACGAUCACCAAGUAUAACCACAUCCUUUGGAAAUCCUUCCAUUUUUGCAAUUUCAAAACAUCCUAACUUGCUGUAAAAUUCCAGAAUUCUUUUAUCAUCUGGUCUCACUUCACAGAAAGCUCCCCGCAACAGAGGAUUGAGCAUCA
B17: chr17:46686077:46686078:-_ENSMUSG00000015605_ENSMUST00000015749|mus_mus|FALSE|FALSE (ssRNA)
RNA: GGGAGUUCUACAGUCCGACGAUCACGGGCGGAUCAUUCACUCUUGGUGCUGUGGGUGGCAUCCAGGUUCACCACCUGUAGCUCGGUGAGGUUGCUGCUGCUCCCAGCUUGCUGCCCUAUCACAGCCAUCUGGUGAAGCUGAACCAACAGAGGAUUGAGCAUCA
B18: 22945114_22947032_1436_CDS_ENSG00000068793_ENST00000560848|human|control|control (ssRNA)
RNA: GGGAGUUCUACAGUCCGACGAUCGUACUCUUCAGCGCUGUCGGGGCAGUCCUUGUUGGAGUACUUGUCGGUGGGGUGCACAAGCUUCCAGGAAUACACUUCCAUCACGUGCGCGCUCCACUGCGACAACAGCUGCAGGCCCUGCAACAGAGGAUUGAGCAUCA
B19: chr15:84030238:84030239:+_ENSMUSG00000022437_ENSMUST00000023071|mus_hu|FALSE|FALSE (ssRNA)
RNA: GGGAGUUCUACAGUCCGACGAUCGUUUCCAACCAUGGUGUUAUAACUGCCCGUUAAUCUCCUCAAUUCAGUUACUUCAAAGGUAACGUCUAACCCAUUUGGAAGUGCGUCAUCACCUUGACAUGUGUCAAUCAAAACAUCCACCAACAGAGGAUUGAGCAUCA
B20: chr17:64801638:64801639:+_ENSG00000154229_ENST00000413366|hu_mus|hu_hu_hu_mus_False|18_78 (ssRNA)
RNA: B6 RNA with A60G, C62G
B21: chr7:66561770:66561771:+_ENSMUSG00000025326_ENSMUST00000107537|mus_mus|FALSE|FALSE (ssRNA)
RNA: GGGAGUUCUACAGUCCGACGAUCUUAGCAUUACAGUAAAUAAGAGCUCUGUCUCAACUACUACAAGAAAGAAAAUAAUCCUAAGACAUCCUUUUCCCCUUCCAAUGAUUUGAAAGCUACCAUUAUCCCCUGCCAAUUAAAAUCCAACAGAGGAUUGAGCAUCA
B22: chr14:89307221:89307222:+_ENSG00000165533_ENST00000346301|hu_mus|hu_hu_hu_mus_False|68_98 (ssRNA)
RNA: GGGAGUUCUACAGUCCGACGAUCUCCUGUUUGGUUAGUUCCAGGGAGCUUCAAAGAUGUGCCAGGGCGUGGAACUUGAGCAAUAGCAUUUUCAUCCAGGAUCAUUUCAGCAAUUCCUUCCUGGUCCACAUCAAUUUCAUCUAUCAACAGAGGAUUGAGCAUCA

The binders below were run against T1, UNK ZnF1-3 (assay: nsRBNS (natural sequence RNA bind-n-seq); RBNS binding buffer (assumed for nsRBNS): 25 mM Tris pH 7.5, 150 mM KCl, 3 mM MgCl2, 0.01% Triton X-100, 500 ug/ml BSA, 20 U/ml SUPERase-In, 4 C; UNK is unkempt and MSI1 is Musashi-1; names of the RNAs are library labels; protein concentration not given here; high values mean tight binding).

Binder	binding signal [enrichment R]
B1	1.38
B2	0.769
B3	0.489
B4	1.25
B5	0.752
B6	1.43
B7	0.672
B8	0.962
B9	1.12
B10	1.3
B11	0.84
B12	0.69
B13	0.717
B14	1.14
B15	0.81
B16	1.04
B17	0.512
B18	0.525
B19	0.891
B20	1.48
B21	1.44
B22	0.796

Reference: paper PMC12136788
